About 14,000 (4.5%) of roughly 310,000 compounds showed an effect of 50% or more. Effects have a minus sign here. The list shows a part of the results.
molecular target: human ether-à-go-go-related gene (hERG) potassium channel (human, UniProt Q12809); assay: primary screen, population patch clamp on CHO cells stably expressing hERG
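Also: peak tail current of the secondary pulse compared with the same well before compound.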

Sequence of human ether-à-go-go-related gene (hERG) potassium channel (Q12809 whole entry, looked up): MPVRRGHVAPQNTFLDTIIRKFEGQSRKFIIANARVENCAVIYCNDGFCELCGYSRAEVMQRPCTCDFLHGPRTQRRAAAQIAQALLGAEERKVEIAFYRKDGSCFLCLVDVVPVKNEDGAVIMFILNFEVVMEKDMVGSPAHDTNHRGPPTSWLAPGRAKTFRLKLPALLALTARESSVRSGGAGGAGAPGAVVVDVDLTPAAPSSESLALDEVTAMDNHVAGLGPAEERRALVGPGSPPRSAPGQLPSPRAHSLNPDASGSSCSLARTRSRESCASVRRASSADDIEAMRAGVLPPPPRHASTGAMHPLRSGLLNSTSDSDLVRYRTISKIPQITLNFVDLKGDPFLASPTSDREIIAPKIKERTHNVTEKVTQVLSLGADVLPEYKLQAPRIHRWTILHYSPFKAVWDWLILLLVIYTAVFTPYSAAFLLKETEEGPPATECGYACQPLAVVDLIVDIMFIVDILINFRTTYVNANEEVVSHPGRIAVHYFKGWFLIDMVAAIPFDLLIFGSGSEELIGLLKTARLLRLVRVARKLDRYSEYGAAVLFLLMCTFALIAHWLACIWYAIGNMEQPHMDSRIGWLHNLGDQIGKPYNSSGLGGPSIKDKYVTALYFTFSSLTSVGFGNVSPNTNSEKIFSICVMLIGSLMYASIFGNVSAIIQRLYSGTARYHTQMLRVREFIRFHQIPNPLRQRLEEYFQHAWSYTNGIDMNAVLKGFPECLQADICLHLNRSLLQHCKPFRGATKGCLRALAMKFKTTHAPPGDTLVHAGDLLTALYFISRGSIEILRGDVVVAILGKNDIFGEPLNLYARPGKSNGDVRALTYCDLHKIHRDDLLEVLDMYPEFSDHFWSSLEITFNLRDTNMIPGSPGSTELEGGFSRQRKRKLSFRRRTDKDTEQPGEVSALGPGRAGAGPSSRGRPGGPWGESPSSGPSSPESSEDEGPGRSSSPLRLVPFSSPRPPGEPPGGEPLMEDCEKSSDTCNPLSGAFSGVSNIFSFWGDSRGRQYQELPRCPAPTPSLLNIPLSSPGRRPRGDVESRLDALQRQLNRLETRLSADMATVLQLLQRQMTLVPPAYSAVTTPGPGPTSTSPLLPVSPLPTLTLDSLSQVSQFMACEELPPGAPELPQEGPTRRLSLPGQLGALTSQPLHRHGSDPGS

Structure (SMILES) | hERG current change (%, negative = inhibition) at 10uM [%]
CCc1noc(C)c1C(=O)N1CCN(S(=O)(=O)c2ccc(Cl)cc2)CC1 | -31.8
CCCc1nc2ccccc2c(=O)n1-c1ccc(OC)cc1 | 9.5
O=C(Cn1cc[n+](Cc2ccccc2)c1)c1ccc([N+](=O)[O-])cc1.[Br-] | -23.7
COc1cc2c(cc1OC)C(CC#N)=NC(C)(C)C2 | 1.7
C=CCn1c(CCNC(=O)c2ccco2)nc2ccccc21 | 8.65
COc1cc(CNC(=O)c2ccc(Cn3nc(C)c(Cl)c3C)o2)cc(OC)c1 | -17.3
Br.N=C1c2ccccc2CN1NC(=O)C1CC1 | -0.826
CCN(CC)S(=O)(=O)c1ccc2c(c1)nc(CCC(=O)Nc1ccc3c(c1)OCO3)n2C | -2.36
CCN(CC)C1CC(=O)N(c2cccc(C)c2)C1=O (stereo not drawn) | -0.878
Cn1cc(-c2ccccc2C(=O)O)c(=O)c2cc(Cl)ccc21 | 20.9
O=C(CNC(=O)c1ccc(-c2ccccc2)cc1)OCc1c(Cl)cccc1Cl | 7.89
Cc1cccc(NC(=O)c2cc(NC(=O)c3ccco3)ccc2N2CCCCC2)c1 | 7.21
CCOC(=O)C(C)n1cnc2c(nnn2-c2ccc(C)cc2)c1=O (stereo not drawn) | -17.1
CCCC(=O)Nc1ccc(Sc2ccc([N+](=O)[O-])cc2)cc1 | -12.2
CCOc1ccccc1NC(=O)COC(=O)Cc1ccsc1 | -0.519
Cc1ccc(C(C)C)c(OCC#CCN2CCOCC2)c1.O=C(O)C(=O)O | -3.23
CCOC(=O)C(CC)Sc1nc2c(c(=O)[nH]c(=O)n2C)n1CCc1ccccc1 (stereo not drawn) | -67.8
COc1cc(C(=O)N(Cc2cccc(Cl)c2)C2CCS(=O)(=O)C2)cc(OC)c1OC (stereo not drawn) | -22.2
O=C(NCc1ccco1)/C(=C\c1cccs1)NC(=O)c1ccsc1 | -7.6
COc1ccc(C(=O)Nc2cccc(-c3cnc4ccccc4n3)c2)cc1 | 4.43
COC(=O)C1(C)NC(c2ccc(O)cc2)C2C(=O)N(c3ccccc3)C(=O)C21 (stereo not drawn) | 14.4
Cc1ccc(C(=O)N2CCN(c3ccc(Cl)cc3)CC2)cc1 | -61.1
COc1ccc(/C=C/C(=O)NC(=S)Nc2cc([N+](=O)[O-])ccc2O)cc1OC | 19.7
COCCn1c(SCC(=O)Nc2ccccc2F)nnc1-c1ccoc1C | 2.8

— article PMC4336329 (PLoS ONE, 2015)
